{"source": "patent US20140057977A1", "about": "“Induction of Arteriogenesis” (G. Pohl-Boskamp GmbH & Co. KG, priority 2012, published 2014)", "tested_on": "collateral arteries", "test": "Coronary microvascular imaging with micro-CT: collateral diameters in the ROI"}
{"smiles": "CC(=O)Oc1ccccc1C(=O)O", "note": "[ASA+PBS, acetyl salicylic acid]", "values": [{"measurement": "collateral diameters compared to controls (in words)", "setting": "5 DAYS RIP, listed as PBS and ASS", "value": "significantly smaller"}, {"measurement": "Collateral diameters of ROI", "setting": "5 DAYS RIP, listed as PBS+ASA", "value": "102.5±8.0", "unit": "μm"}]}
{"smiles": "O=[N+]([O-])OCC(CO[N+](=O)[O-])O[N+](=O)[O-]", "note": "[NTG, nitroglycerin]", "values": [{"measurement": "Collateral diameters of ROI", "setting": "5 DAYS RIP", "value": "158.4±9.2", "unit": "μm"}, {"measurement": "Collateral diameters of ROI", "setting": "5 DAYS SHAM", "value": "86.8±9.0", "unit": "μm"}]}
